# Reference: PubChem BioAssay AID686970 (National Center for Advancing Translational Sciences (NCATS), 2013)
# The campaign covered roughly 360,000 compounds. About 6,000 (1.7%) were called active. The inconclusive results got no clear call from the source; some entries with a clear call stand among them for comparison. Calls come from the whole dose curve; as a rule, active = well fitted cell-killing curve with a large enough effect; inconclusive = small, poorly fitted or top-dose-only effect, or effect the other way; inactive = flat fitted curve, though single readings scatter. Potencies of inconclusive entries are left out as doubtful fits.
# Assay: qHTS for induction of synthetic lethality in tumor cells producing 2HG: qHTS for the HT-1080-NT fibrosarcoma cell line;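 note: NT is the 2HG producing partner of a matched IDH1 knockdown line; nearly all actives have a fitted effect of over 55% in size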
# Conditions: HT-1080-NT fibrosarcoma viability, CellTiter-Glo ATP luminescence, 48 h; series mostly up to 46.1 µM
# Procedure, shortened: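 HT-1080-NT; 750 cells/well; 5% FBS RPMI; 48 h compound, 37 degrees C; CellTiter-Glo luminescence; curve fitting and curve-class assignment.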
# Potency is the fitted concentration of half-maximal effect; tags give direction and shape of the fitted curve.
row,SMILES,Potency
1,CCO/C=N/Nc1nc(C(F)(F)F)nc2c1cnn2Cc1ccccc1,inactive
2,O=C(NNC(=O)C1CCC(C(=O)NNC(=O)c2cccs2)CC1)c1cccs1 (centres undefined),inactive
3,COc1ccc(/C=N/NC(=O)c2[nH]c3ccc(Br)cc3c2-c2ccccc2)cc1,active: 0.0366 µM
4,O=C(O)c1ccc(C=C(c2nc3ccccc3s2)c2nc3ccccc3s2)cc1,"inconclusive [cytotoxic, single point]"
5,CCC1CCCCN1c1cc(C)nc2cc(-c3cccc(C)c3)nn12 (centres undefined),"inconclusive [cytotoxic, single point]"
6,CN1C[C@@H]2[C@@H]3C(=O)N(C)C(=O)[C@@H]3[C@](C)(C1=O)N2C(=O)c1ccccc1,"inconclusive [rising, single point]"
7,O=C1c2cccc3cccc(c23)C(=O)C1(O)O,"inconclusive [cytotoxic, single point]"
8,O=Cc1ccc(F)c([B-](F)(F)F)c1,inactive
9,CCN1/C(=C/c2ccc3cc(C)cc(C)c3[n+]2CC)Sc2cc(C)ccc21,active: 7.31 µM
10,CC1(C)CC(N2CCN(C(c3ccccc3)c3ccccc3)CC2)=CC(=[N+]2CCCCC2)C1,active: 2.06 µM
11,CN(C)S(=O)(=O)c1cccc(NC(=S)N/N=C/c2cc(Br)ccc2O)c1,"inconclusive [cytotoxic, partial curve]"
12,COc1ccccc1N1CCN(C(=O)c2cc(-c3ccc(F)cc3)[nH]c2C)CC1,"inconclusive [cytotoxic, single point]"
13,Cc1ccc(N2Cc3ccccc3C2=O)cc1,"inconclusive [cytotoxic, single point]"
14,CCOC(=O)Cc1c(C)nc2c(-c3ccccc3)c(-c3ccccc3)[nH]n2c1=O,"inconclusive [cytotoxic, single point]"
15,O=C(N/N=C/c1cccc(F)c1)c1c(O)c2ccccc2[nH]c1=O,inactive
16,COc1ccc(C(C)(O)c2nc(-c3cccc(C(C)C)c3)cs2)cc1 (centres undefined),"inconclusive [cytotoxic, single point]"
17,Cc1cc(C)cc(-n2c3ccc(NC(=O)Cc4cccc5ccccc45)cc3c(=O)n2C)c1,"inconclusive [cytotoxic, partial curve]"
18,Cc1ccc(S(=O)(=O)N2C[C@H]3[C@H]4C(=O)N(c5ccccc5)C(=O)[C@H]4C[C@H](OC(=O)Nc4c(C)noc4C)[C@@]3(O)C2)cc1,inactive
19,CC1CCN(C(=O)c2cc(S(=O)(=O)N3CCOCC3)ccc2N2CCCC2)CC1,inactive
